Sequences and labels used below:
T1: RBFOX1 RRM (Homo sapiens, UniProt Q9NWB1 109-208)
T1 sequence: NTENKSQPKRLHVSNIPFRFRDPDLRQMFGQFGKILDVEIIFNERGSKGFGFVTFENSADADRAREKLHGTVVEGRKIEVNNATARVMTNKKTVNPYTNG

B1: GCGAUCU (DNA:RNA)
RNA: GGGAGACCGGAAUUCAGAUUGUCCGCGAUCUUUAAAUCCCGUCGUAGCCACCA
DNA 1: CAATCTGAATTCCGGTCTCCC
DNA 2: TGGTGGCTACGACGGGATT
B2: GCGUUGC (DNA:RNA)
RNA: B1 RNA with A28U, C30G, U31C
DNA 1: CAATCTGAATTCCGGTCTCCC
DNA 2: TGGTGGCTACGACGGGATT
B3: GUUCCCU (DNA:RNA)
RNA: B1 RNA with C26U, G27U, A28C, U29C
DNA 1: CAATCTGAATTCCGGTCTCCC
DNA 2: TGGTGGCTACGACGGGATT
B4: CGUGUAA (DNA:RNA)
RNA: B1 RNA with G25C, C26G, G27U, A28G, C30A, U31A
DNA 1: CAATCTGAATTCCGGTCTCCC
DNA 2: TGGTGGCTACGACGGGATT
B5: UGUGUUC (DNA:RNA)
RNA: B1 RNA with G25U, C26G, G27U, A28G, C30U, U31C
DNA 1: CAATCTGAATTCCGGTCTCCC
DNA 2: TGGTGGCTACGACGGGATT
B6: UAACGGG (DNA:RNA)
RNA: GGGAGACCGGAAUUCAGAUUGUCCUAACGGGUUAAAUCCCGUCGUAGCCACCA
DNA 1: CAATCTGAATTCCGGTCTCCC
DNA 2: TGGTGGCTACGACGGGATT
B7: ACAGAGG (DNA:RNA)
RNA: B6 RNA with U25A, A26C, C28G, G29A
DNA 1: CAATCTGAATTCCGGTCTCCC
DNA 2: TGGTGGCTACGACGGGATT
B8: GCGAGAU (DNA:RNA)
RNA: B1 RNA with U29G, C30A
DNA 1: CAATCTGAATTCCGGTCTCCC
DNA 2: TGGTGGCTACGACGGGATT
B9: ACUCCAU (DNA:RNA)
RNA: B1 RNA with G25A, G27U, A28C, U29C, C30A
DNA 1: CAATCTGAATTCCGGTCTCCC
DNA 2: TGGTGGCTACGACGGGATT
B10: GAGGCCG (DNA:RNA)
RNA: B1 RNA with C26A, A28G, U29C, U31G
DNA 1: CAATCTGAATTCCGGTCTCCC
DNA 2: TGGTGGCTACGACGGGATT
B11: UAAUACG (DNA:RNA)
RNA: B6 RNA with C28U, G29A, G30C
DNA 1: CAATCTGAATTCCGGTCTCCC
DNA 2: TGGTGGCTACGACGGGATT
B12: GAUUUGG (DNA:RNA)
RNA: B6 RNA with U25G, A27U, C28U, G29U
DNA 1: CAATCTGAATTCCGGTCTCCC
DNA 2: TGGTGGCTACGACGGGATT
B13: CCACCCU (DNA:RNA)
RNA: B1 RNA with G25C, G27A, A28C, U29C
DNA 1: CAATCTGAATTCCGGTCTCCC
DNA 2: TGGTGGCTACGACGGGATT
B14: CUCGAAC (DNA:RNA)
RNA: GGGAGACCGGAAUUCAGAUUGUCCCUCGAACUUAAAUCCCGUCGUAGCCACCA
DNA 1: CAATCTGAATTCCGGTCTCCC
DNA 2: TGGTGGCTACGACGGGATT
B15: AGUCCGC (DNA:RNA)
RNA: B6 RNA with U25A, A26G, A27U, G29C, G31C
DNA 1: CAATCTGAATTCCGGTCTCCC
DNA 2: TGGTGGCTACGACGGGATT
B16: AGUUCCA (DNA:RNA)
RNA: B1 RNA with G25A, C26G, G27U, A28U, U29C, U31A
DNA 1: CAATCTGAATTCCGGTCTCCC
DNA 2: TGGTGGCTACGACGGGATT
B17: ACCGCUG (DNA:RNA)
RNA: B14 RNA with C25A, U26C, A29C, A30U, C31G
DNA 1: CAATCTGAATTCCGGTCTCCC
DNA 2: TGGTGGCTACGACGGGATT
B18: GACGAGU (DNA:RNA)
RNA: B14 RNA with C25G, U26A, A30G, C31U
DNA 1: CAATCTGAATTCCGGTCTCCC
DNA 2: TGGTGGCTACGACGGGATT
B19: AAUUUUG (DNA:RNA)
RNA: B6 RNA with U25A, A27U, C28U, G29U, G30U
DNA 1: CAATCTGAATTCCGGTCTCCC
DNA 2: TGGTGGCTACGACGGGATT
B20: UUCACUU (DNA:RNA)
RNA: B14 RNA with C25U, G28A, A29C, A30U, C31U
DNA 1: CAATCTGAATTCCGGTCTCCC
DNA 2: TGGTGGCTACGACGGGATT
B21: AUACGUU (DNA:RNA)
RNA: B6 RNA with U25A, A26U, G30U, G31U
DNA 1: CAATCTGAATTCCGGTCTCCC
DNA 2: TGGTGGCTACGACGGGATT
B22: GACCUGC (DNA:RNA)
RNA: B6 RNA with U25G, A27C, G29U, G31C
DNA 1: CAATCTGAATTCCGGTCTCCC
DNA 2: TGGTGGCTACGACGGGATT
B23: AUCUUCG (DNA:RNA)
RNA: B14 RNA with C25A, G28U, A29U, A30C, C31G
DNA 1: CAATCTGAATTCCGGTCTCCC
DNA 2: TGGTGGCTACGACGGGATT
B24: CGCAUUU (DNA:RNA)
RNA: B1 RNA with G25C, C26G, G27C, C30U
DNA 1: CAATCTGAATTCCGGTCTCCC
DNA 2: TGGTGGCTACGACGGGATT
B25: CAAAUAU (DNA:RNA)
RNA: B1 RNA with G25C, C26A, G27A, C30A
DNA 1: CAATCTGAATTCCGGTCTCCC
DNA 2: TGGTGGCTACGACGGGATT
B26: GGGAGAC (DNA:RNA)
RNA: B1 RNA with C26G, U29G, C30A, U31C
DNA 1: CAATCTGAATTCCGGTCTCCC
DNA 2: TGGTGGCTACGACGGGATT
B27: CCUAAGG (DNA:RNA)
RNA: B14 RNA with U26C, C27U, G28A, A30G, C31G
DNA 1: CAATCTGAATTCCGGTCTCCC
DNA 2: TGGTGGCTACGACGGGATT
B28: ACUGACG (DNA:RNA)
RNA: B14 RNA with C25A, U26C, C27U, A30C, C31G
DNA 1: CAATCTGAATTCCGGTCTCCC
DNA 2: TGGTGGCTACGACGGGATT
B29: AGCAGGA (DNA:RNA)
RNA: B6 RNA with U25A, A26G, A27C, C28A, G31A
DNA 1: CAATCTGAATTCCGGTCTCCC
DNA 2: TGGTGGCTACGACGGGATT
B30: CCGUUUU (DNA:RNA)
RNA: B1 RNA with G25C, A28U, C30U
DNA 1: CAATCTGAATTCCGGTCTCCC
DNA 2: TGGTGGCTACGACGGGATT
B31: UAGGAUA (DNA:RNA)
RNA: B14 RNA with C25U, U26A, C27G, A30U, C31A
DNA 1: CAATCTGAATTCCGGTCTCCC
DNA 2: TGGTGGCTACGACGGGATT

Where a chain is given by its changes, count along the chain named. The list shows a part of the results.

In this test the target is T1, RBFOX1 RRM. The experiment in a line: EMSA; HiTS-Eq, 1 nM pool, 10 min; buffer printed only for the single-RNA assays: 10 mM Tris pH 7.5, 150 mM NaCl, 3.4 mM EDTA, 0.001% NP-40, 30 C. As to conditions: tags: His6 N-terminal (pET28a); label: 5' 32P. The method in brief: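 Purified RbFox RRM, wild type or mutant, was incubated for 10 min in 50 µL with 1 nM of a 5′-radiolabelled RNA pool carrying 7 randomized nucleotides, whose flanks were annealed to DNA oligonucleotides, over a series of increasing protein concentrations. Unbound RNA was resolved on 8% native PAGE, cut out, reverse-transcribed, barcoded by PCR and sequenced on an Illumina HiSeq 2500. Relative association constants were derived from changes in read counts for each RNA species versus the control reaction and normalised to the cognate motif.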
(In EMSA bound probe runs differently from free probe, usually more slowly.)
B1: the binding signal was 0.014 KA relative to UGCAUGU. Turning to B2, the binding signal is 0.0184 KA relative to UGCAUGU.

Take B3: the binding signal is 0.00682 KA relative to UGCAUGU. To B4 belongs 0.00426 KA relative to UGCAUGU; to B5, 0.0217 KA relative to UGCAUGU. With B6, the binding signal was 0.00415 KA relative to UGCAUGU. For B7, the binding signal is 0.00768 KA relative to UGCAUGU.

For B8, the binding signal is 0.0204 KA relative to UGCAUGU. Under B9 stands 0.000544 KA relative to UGCAUGU.

Turning to B10, the binding signal was 0.0201 KA relative to UGCAUGU. Take B11: the binding signal is 0.00765 KA relative to UGCAUGU. For B12, the binding signal was 0.021 KA relative to UGCAUGU.

As to B13, the binding signal was 0.00112 KA relative to UGCAUGU. To B14 belongs 0.00512 KA relative to UGCAUGU. Under B15 stands 0.0128 KA relative to UGCAUGU; under B16, 0.00262 KA relative to UGCAUGU; under B17, 0.00961 KA relative to UGCAUGU. To B18 belongs 0.0215 KA relative to UGCAUGU; to B19, 0.0117 KA relative to UGCAUGU.

For the molecule B20, the binding signal was 0.00242 KA relative to UGCAUGU. With B21, the binding signal is 0.00222 KA relative to UGCAUGU. Under B22 stands 0.0204 KA relative to UGCAUGU; under B23, 0.00795 KA relative to UGCAUGU.

On to B24, for which the binding signal was 0.0106 KA relative to UGCAUGU. Turning to B25, the binding signal is 0.00103 KA relative to UGCAUGU. Under B26 stands 0.0226 KA relative to UGCAUGU. To B27 belongs 0.00828 KA relative to UGCAUGU; to B28, 0.0104 KA relative to UGCAUGU; to B29, 0.00761 KA relative to UGCAUGU.

In the case of B30, the binding signal was 0.0107 KA relative to UGCAUGU. Under B31 stands 0.00477 KA relative to UGCAUGU.

The values are drawn from publication PMC9911399, “Two distinct binding modes provide the RNA-binding protein RbFox with extraordinary sequence specificity”.
